Source: the supplement of paper PMC3334620
Over roughly 33,000 sequences, “E-score (-0.5 to 0.5)” has its median near -0.01; the highest 2% begin near 0.26. The list shows a part of the results.

Target: Ste12 (UniProt P13574)
Test: PBM E-score (8-mer binding enrichment) (E-score (-0.5 to 0.5)); higher = stronger / more preferred TF binding; most listed sequences are background and not binding sites
Settings: protein concentration: 200 nM; construct: GST-DNA-binding domain
Procedure, shortened: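 The E-score, a modified Wilcoxon-Mann-Whitney statistic, was computed by the Universal PBM Analysis Suite for every ungapped eight-base word pooled with its reverse complement. Scans behind it were normalised with masliner after bound GST-tagged yeast transcription factors were detected with fluorescent anti-GST. The proteins, at about 100-200 nM, had been applied to universal all-10-mer Agilent arrays made double-stranded by primer extension.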

Sequence | PBM E-score
CTGGCCAC | -0.0729
ACCTGTCC | -0.197
ACGGCCGA | -0.00423
CAGCGTCG | -0.0332
ATGTAAGG | -0.0204
CCAGAGCC | -0.0846
CGCTTCTC | 0.0454
GACTAATA | 0.021
GGAACTGA | -0.0249
ACGGATAG | 0.0338
CCTATTAG | -0.125
CCCCATAA | 0.0738
CCATATGC | -0.0488
CAGCATCG | -0.0328
AGGGATTC | -0.111
CGCTGGCA | 0.00792
CCACTATA | -0.0328
GTTTCCGA | 0.238
GCCGGAGC | 0.0404
CCCATTCG | 0.0016
GCAGGACC | -0.265
GAAATGAC | 0.189
AATTTTGC | 0.0426
AAGCCCTG | -0.194
AATATGCG | 0.0236

Sequence | PBM E-score
ATATTAAT | 0.298
ATCTAGCA | -0.0817
GGCGCTTA | 0.0142
ATTGCACC | 0.0905
CCTTGATA | 0.00987
TAAATTAA | 0.155
ACGACAAC | -0.0246
ATGTGAAC | -0.0405
AGCGCTTA | -0.00253
ACTGCCCG | 0.0357
CTCAAACA | 0.341
TAGGCCCA | -0.124
AAAGTAGG | 0.115
AGAGGCTG | -0.0601
GTTGACTA | -2e-05
ACATGTAA | 0.21
GCCTTGGA | -0.0633
AACTCTCT | 0.0217
ACGTCCCT | -0.151
ACGATAAA | 0.0718
ATATCTGC | -0.214
CTCTAGAC | -0.0352
ACATACTA | 0.0324
ATGAAAAG | -0.0787
AGCCGCAT | -0.0773

Sequence | PBM E-score
CTAAAGAA | -0.089
ACCGCGGG | 0.234
AACGCTTC | 0.175
AACCACCA | 0.14
ACCACAGA | -0.0877
AAATCGTC | -0.00682
AGAGCCAG | -0.227
CATCTCGG | -0.0831
ATATGACG | 0.0643
ACTGCTTA | -0.0206
CACCATTA | 0.091
CGCTAATA | -0.0552
GTTAAACA | 0.0213
CTGCCTCA | -0.0649
GATTAGCA | -0.0832
TCGCAACA | 0.104
ATTGACCA | 0.0873
AAGTGGCA | -0.15
GATGCCCC | -0.127
AGCCCCGC | 0.00907
CTGGGGCC | -0.2
AAACAAGT | 0.149
GCAATGGA | -0.0457
ACTACCGG | -0.16
AACAGGTG | -0.0353

Sequence | PBM E-score
CCAAATCG | -0.126
GGGGTACA | -0.236
ACAATACC | 0.257
CCTCAGAC | 0.107
GCAATTCC | -0.035
ACCACATC | 0.0724
ATGTTGAG | 0.112
AACTTTGG | -0.0675
ACCACGTC | -0.148
CTCTCGTA | -0.125
AGCAGTAC | -0.0135
GGGGAACC | -0.208
TGGTCACA | -0.0244
CTGACCAA | 0.164
AGCAACCT | 0.0714
GCACCCCC | -0.235
ACCGTGAT | 0.0763
ACCGGGTG | -0.0697
ACCTGACG | -0.0165
GTCTTCAA | 0.0115
ATACATCA | 0.138
ACTAGCGA | -0.123
AAACGGCA | 0.145
CCGCGGAG | 0.113
CAGACATA | 0.0544

Sequence | PBM E-score
CCTTCAGC | -0.154
CTAGAATA | 0.171
ATACTCGC | 0.117
GACACTAC | 0.00286
CGCGTAGC | -0.0904
CCCTACGG | -0.177
GATCACGA | 0.0145
AATTCGCA | 0.0781
CGAGCTCG | -0.00333
GGCGTAGA | -0.00577
CTAACACC | 0.044
CAGAGGTA | 0.0373
GGATCCAC | -0.0972
GATGCCGC | -0.0688
GGGCTCAA | -0.085
ATTCGTAC | 0.0881
AAGAGATA | -0.0137
TACAATCA | 0.0199
AAATGTAG | 0.0598
ACAGCTCC | 0.0816
GATGTTCC | 0.0244
GCGCTGGA | 0.0382
TATTGCCA | 0.113
CGAAGTCA | -0.0644
ATTCGCTC | 0.109

Sequence | PBM E-score
AAGATGGA | 0.0973
GCTGCCCA | -0.123
AGCGTTGG | -0.0331
GCTAATCA | 0.0329
GAGCACTA | -0.294
ATCGCAAA | 0.0711
AGTCTAGA | -0.075
TCCAAGGA | -0.0452
GATCAGGC | -0.221
ATTGAGTG | 0.13
ACGTCAAC | -0.0173
TACTCCAA | 0.0744
AACGAAGG | -0.264
TCTTCGCA | 0.0115
CTTCAGTC | -0.119
CCATTTGA | -0.114
CGTGCTAA | -0.0629
AATCTTGT | 0.135
GTCGCAGA | 0.055
ACCCTCCC | 0.378
GATCGACA | -0.0651
ATACGGGC | -0.122
CAGTCTGG | -0.0676
ATTCTATG | 0.21
AGGATATG | -0.0599

Sequence | PBM E-score
ATACCGAA | 0.0977
TGAACAAA | 0.212
ACGAGCCC | -0.0742
GCAGAATA | 0.136
CAACTCAC | -0.133
GCTAGTTA | -0.0188
CCTTCAAG | -0.066
AGCACGAT | 0.0674
AAGGGTAG | -0.0808
CATCCAAG | -0.0904
CCCCTGAA | 0.0279
ATGTATGG | 0.0672
AGACCCCC | -0.134
ATCTATTA | 0.176
AGCGCGGA | 0.14
CTTTGCCC | -0.134
ACGCACTA | -0.153
GAGGTATA | 0.122
TATATGAA | 0.17
ACTGTTGA | 0.186
AGTATCTG | -0.204
ACGATGCA | -0.0403
ATAGTAGA | 0.0533
AGATTCCA | 0.106
AGTACTAA | 0.0974

Sequence | PBM E-score
AAGTTCCT | -0.202
AAGACACG | -0.0605
AGTCCGTC | -0.104
CGTGGTTA | 0.0817
CCGCCTTA | 0.0555
ACAATGCA | 0.0812
CAGGTTGG | 0.0789
CCGCACGG | -0.0176
CGAAAGCC | -0.119
ATGTTCAA | -0.077
GGATTAAA | 0.274
GCGGTTGA | -0.0531
ATTTAGTA | 0.197
GGCCAGAC | -0.0903
ATCGACGC | -0.0385
GCGATACC | 0.0176
AGAACTGA | 0.0891
CCTTAGCA | 0.118
TCTGGCCA | -0.0752
ATGGGGCG | 0.201
AATTCCAC | 0.169
ACACTCCT | -0.0346
AATGATAA | 0.263
TATACGAA | 0.223
GGCCAACC | -0.136

Sequence | PBM E-score
AGGCGGCC | -0.0597
AGGTCGAC | -0.0704
ACTTGCAC | 0.0286
AGACCACC | -0.0783
GGACCCCC | -0.214
GAGCGCGC | 0.0527
AAGTTCAT | 0.124
CACGTTGC | -0.108
AGGGAGTA | 0.00328
ACTGGCAA | 0.0278
ACCGTAAA | 0.164
AAATGTGG | 0.0717
GCGCAAAA | 0.061
AAACGTAT | 0.228
CGAGCACC | -0.0862
ACGACGAT | 0.0455
CAGGATTA | 0.0467
GTATCAAC | 0.122
ATCAAGGG | -0.0528
